Data published in paper PMC4336329 (PLoS ONE, 2015).
The campaign covered roughly 310,000 compounds. About 14,000 (4.5%) showed an effect of 50% or more. Effects have a minus sign here. The list shows a part of the results.

The compounds below were run against human ether-à-go-go-related gene (hERG) potassium channel (human, UniProt Q12809) (assay: primary screen, population patch clamp on CHO cells stably expressing hERG).
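Note: peak tail current of the secondary pulse compared with the same well before compound.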

Chain of human ether-à-go-go-related gene (hERG) potassium channel (Q12809 whole entry, looked up): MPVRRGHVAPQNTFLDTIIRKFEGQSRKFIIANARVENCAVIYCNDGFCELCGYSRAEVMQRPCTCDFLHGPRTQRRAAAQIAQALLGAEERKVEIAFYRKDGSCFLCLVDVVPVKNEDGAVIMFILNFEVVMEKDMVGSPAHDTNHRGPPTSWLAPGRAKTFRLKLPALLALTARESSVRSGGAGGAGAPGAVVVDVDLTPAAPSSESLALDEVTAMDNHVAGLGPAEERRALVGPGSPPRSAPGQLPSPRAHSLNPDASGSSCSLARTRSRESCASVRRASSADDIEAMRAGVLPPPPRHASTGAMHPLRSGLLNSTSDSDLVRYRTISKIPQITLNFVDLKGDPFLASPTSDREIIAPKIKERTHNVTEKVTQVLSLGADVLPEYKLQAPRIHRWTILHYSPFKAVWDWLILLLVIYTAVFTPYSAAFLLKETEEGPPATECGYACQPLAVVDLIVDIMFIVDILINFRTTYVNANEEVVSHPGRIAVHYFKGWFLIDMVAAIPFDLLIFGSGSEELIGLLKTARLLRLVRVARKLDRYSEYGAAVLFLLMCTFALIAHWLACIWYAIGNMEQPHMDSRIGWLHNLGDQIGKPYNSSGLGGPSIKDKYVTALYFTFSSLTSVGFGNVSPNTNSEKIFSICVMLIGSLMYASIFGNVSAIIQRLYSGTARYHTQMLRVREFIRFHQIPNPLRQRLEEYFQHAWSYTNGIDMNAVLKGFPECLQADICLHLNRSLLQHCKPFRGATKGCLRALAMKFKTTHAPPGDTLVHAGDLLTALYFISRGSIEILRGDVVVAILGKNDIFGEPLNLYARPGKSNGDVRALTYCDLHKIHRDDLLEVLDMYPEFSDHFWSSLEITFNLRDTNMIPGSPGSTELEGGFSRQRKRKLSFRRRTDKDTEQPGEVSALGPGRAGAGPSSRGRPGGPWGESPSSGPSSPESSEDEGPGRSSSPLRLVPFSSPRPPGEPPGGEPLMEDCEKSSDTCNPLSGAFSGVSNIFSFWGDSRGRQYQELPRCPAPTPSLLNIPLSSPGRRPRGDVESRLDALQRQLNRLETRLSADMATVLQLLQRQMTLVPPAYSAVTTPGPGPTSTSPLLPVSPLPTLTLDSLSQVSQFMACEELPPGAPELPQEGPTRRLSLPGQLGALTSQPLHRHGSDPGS

Structure (SMILES) | hERG current change (%, negative = inhibition) at 10uM
CCn1c(=O)c2c(nc(SCC(=O)N3CCC(C)CC3)n2C)n(C)c1=O | -2.1%
Cc1cccc(/C=C2/Sc3ccc(C(=O)NCCCN4CCOCC4)cc3NC2=O)c1 | -25.3%
CCOC(=O)c1[nH]c(C)c(C(=O)OC(C)C(=O)Nc2ncc(Cl)cc2Cl)c1C (stereo not drawn) | -0.541%
Cc1ccc(-c2cn(S(=O)(=O)c3ccc(C)cc3)nc2N)cc1 | 5.33%
CC(C(Sc1ccccc1N)c1ccccc1)[N+](=O)[O-] (stereo not drawn) | 7.82%
Cc1ccc(NC(=S)NCC2CCCO2)c(OC(F)F)c1 (stereo not drawn) | -4.36%
O=C(COc1cccc([N+](=O)[O-])c1)NN1C(=O)c2ccccc2C1=O | -5.95%
CCC(C)Nc1nc(C)nc2c1oc1ccccc12.Cl (stereo not drawn) | 2.64%
COc1c(C=O)cc2c3c1CCCN3CCC2 | 23.3%
COc1ccc2[nH]c(=O)c(CN(C(=O)COc3ccccc3)C(C)C)cc2c1 | -10.6%
COCCNC(=O)[C@@H]1CCCN1C(=O)C1CCN(S(=O)(=O)c2ccc(C)cc2)CC1 | 2.72%
Cn1c(=O)n(CC(=O)N2CCN(c3nnc(-c4ccccc4)c4ccccc34)CC2)c2ccccc21 | -56%
COc1cccc(-c2csc(NC3OC(=O)c4c3ccc(OC)c4OC)n2)c1 (stereo not drawn) | 6.18%
Cc1ccc(F)c(Cn2cnc3c(cnn3C(C)(C)C)c2=O)c1Cl | -6.94%
O=C(N/N=C/c1cc(Br)ccc1O)C(c1ccncc1)N1CCOCC1 (stereo not drawn) | -16%
Cc1ccc(-c2c[nH]c(=S)n2-c2ccccc2)cc1 | 6.41%
Cl.NC(=NCc1ccccc1)NC(=O)c1nc(Cl)c(N)nc1N | -54.2%
CC(C)(C)C1CC=C2C(C#N)=C(N)C(C#N)(C#N)C(c3cccs3)C2C1 (stereo not drawn) | -8.29%
COc1ccccc1C(=O)NCCN1CCN(C(=O)c2ccccc2OC)CC1 | -48.6%
CN1CCC(OC(=O)c2cccc(F)c2)CC1.Cl | -0.186%
Nc1nonc1-n1nnc(C(=O)N/N=C/c2cccs2)c1-c1ccc2c(c1)OCO2 | 0.643%
CCN(CC)CCNC(=O)c1ccc(NC(=O)c2c(F)cccc2Cl)cc1 | -12.4%
COc1ccc(N(C(=O)CNS(=O)(=O)c2ccccc2)C(C(=O)NCc2ccco2)C(C)C)cc1 (stereo not drawn) | -4.04%
O=C(CCCC(=O)N(CC(=O)NC1CCCC1)Cc1ccccc1Cl)Nc1ccccn1 | -8.62%
